# Paper PMC4336329 (PLoS ONE, 2015)
# The whole screen tested about 310,000 compounds, of which about 2,200 (0.71%) showed an effect of 50% or more. The effect is printed as a negative number. The list shows a part of the results.
# Molecular target: human ether-à-go-go-related gene (hERG) potassium channel (human, UniProt Q12809)
# Assay: primary screen, population patch clamp on CHO cells stably expressing hERG
# Chain of human ether-à-go-go-related gene (hERG) potassium channel (Q12809 whole entry, looked up): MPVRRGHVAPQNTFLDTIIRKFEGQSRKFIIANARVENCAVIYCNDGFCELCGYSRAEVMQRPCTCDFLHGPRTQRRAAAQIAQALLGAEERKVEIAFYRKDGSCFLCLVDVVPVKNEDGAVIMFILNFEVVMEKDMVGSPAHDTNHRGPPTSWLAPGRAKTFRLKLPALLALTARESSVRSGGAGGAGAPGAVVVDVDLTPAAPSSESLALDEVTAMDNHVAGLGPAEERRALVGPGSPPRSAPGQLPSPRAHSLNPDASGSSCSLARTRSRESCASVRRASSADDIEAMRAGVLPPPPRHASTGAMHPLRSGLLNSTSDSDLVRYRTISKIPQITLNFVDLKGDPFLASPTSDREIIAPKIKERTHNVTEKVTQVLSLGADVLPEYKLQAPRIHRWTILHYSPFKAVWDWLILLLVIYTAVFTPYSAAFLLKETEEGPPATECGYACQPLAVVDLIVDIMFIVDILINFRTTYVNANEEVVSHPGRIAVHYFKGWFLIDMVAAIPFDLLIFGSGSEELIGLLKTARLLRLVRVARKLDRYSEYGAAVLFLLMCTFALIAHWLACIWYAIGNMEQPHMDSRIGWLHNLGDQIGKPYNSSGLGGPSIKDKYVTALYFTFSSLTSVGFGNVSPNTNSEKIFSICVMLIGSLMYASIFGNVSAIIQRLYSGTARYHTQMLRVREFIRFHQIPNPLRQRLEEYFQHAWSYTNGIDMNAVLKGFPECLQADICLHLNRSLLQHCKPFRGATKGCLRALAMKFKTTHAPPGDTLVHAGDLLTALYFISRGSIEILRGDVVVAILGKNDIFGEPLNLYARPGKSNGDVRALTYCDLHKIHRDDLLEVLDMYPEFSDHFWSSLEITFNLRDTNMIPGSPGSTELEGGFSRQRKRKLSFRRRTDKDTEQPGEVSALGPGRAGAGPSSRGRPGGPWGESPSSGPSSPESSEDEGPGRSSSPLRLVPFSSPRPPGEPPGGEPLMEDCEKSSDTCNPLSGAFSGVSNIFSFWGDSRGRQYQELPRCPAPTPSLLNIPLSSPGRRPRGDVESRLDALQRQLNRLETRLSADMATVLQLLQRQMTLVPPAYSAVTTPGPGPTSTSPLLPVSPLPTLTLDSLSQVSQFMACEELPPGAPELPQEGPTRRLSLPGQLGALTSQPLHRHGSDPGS
row,SMILES,"hERG current change (%, negative = inhibition) at 1uM"
1,CN(N=Nc1cccc([N+](=O)[O-])c1)c1ccccc1,-4.89%
2,COc1cccc(N=C(N)N=C(N)N)c1,15.9%
3,CC(C)(C)OC(=O)NOCC(=O)N(CC(=O)c1ccccc1)Cc1ccccc1,13%
4,O=C(Nc1ccccc1)Oc1cccc(Br)c1,11%
5,N#C/C(=C\Nc1ccccn1)S(=O)(=O)c1ccc(Cl)cc1,14.4%
6,Cc1ccc(OCCNC(=O)C2CC(=O)N(Cc3ccccc3)C2)cc1 (stereo not drawn),-0.366%
7,Cc1ccc2c(cnn2C(=O)CCC(=O)NCc2ccccc2Cl)c1,13.9%
8,Cc1ccc(C)c(N2CCN(C(=O)CCCn3c(=S)[nH]c4cc5c(cc4c3=O)OCO5)CC2)c1,3.35%
9,CCCCNC(=O)COCc1cc(-c2ccc3c(c2)OCO3)on1,8.1%
10,CS(=O)(=O)NCCSCc1c(Cl)cccc1Cl,6.38%
11,Cc1ccc2c(c1)N(C(=O)CCC(=O)O)CCO2,5.28%
12,CC1CCCN(Cc2nc3c(c(=O)n(C)c(=O)n3C)n2CC(=O)c2ccccc2)C1 (stereo not drawn),4.21%
13,CCCCCC(C)n1[nH]c(=O)cc1N (stereo not drawn),10.1%
14,Cc1ccc(-n2nc(C)c3c(C)c(CCC(=O)O)c(C)nc32)cc1C,17.5%
15,O=C(NC(n1ccc(=O)[nH]c1=O)C(Cl)(Cl)Cl)C12CC3CC(CC(C3)C1)C2 (stereo not drawn),-0.0313%
16,CCc1cccc(NC(=O)C2CC2c2ccccc2)c1 (stereo not drawn),13.8%
17,O=S(=O)(NCc1cccnc1)c1cccs1,11.1%
18,CC(C)c1cc(=O)n2[nH]c(SCc3ccccc3)nc2n1,13.8%
19,CC(=O)c1cn(-c2ccc(Cl)cc2)c(=O)n(Cc2ccc(Br)cc2)c1=O,10.9%

row,SMILES,"hERG current change (%, negative = inhibition) at 1uM"
1,Cc1ccc(C)c(N2CCN(C(=O)Nc3ccc4c(c3)N(C)C(=O)CS4)CC2)c1,-4.26%
2,CCOC(=O)CC(NS(=O)(=O)c1ccc2[nH]cc(C(=O)O)c(=O)c2c1)c1ccc(OCC)c(OC)c1 (stereo not drawn),2.74%
3,CN(Cc1ccccc1)C(=O)c1[nH]cnc1C(=O)Nc1nccs1,7.25%
4,Cc1ccc(Sc2ccc(C(=O)N(C)C)cc2[N+](=O)[O-])cc1,-13.8%
5,Cc1cccc(OCC(O)CN2CCc3ccccc3C2)c1.Cl (stereo not drawn),-0.945%
6,COc1ccc2[nH]c(C)c(CCNCc3cn(C)c4ccccc34)c2c1.O=C(O)C(=O)O,7.22%
7,CC(C)(C)OC(=O)CNC(=O)c1nc[nH]c1C(=O)NCc1ccccc1,-1.26%
8,C=CCn1c(SCc2c(C)noc2C)nnc1C1COc2ccccc2O1 (stereo not drawn),8.71%
9,Cn1c(-c2sc3cc(C(F)(F)F)cnc3c2-c2cccs2)n[nH]c1=S,13%
10,Cc1ccc(S(=O)(=O)n2ccc3c2CCCC3=O)cc1,9.17%
11,Cc1c(C(N)=O)sc(N)c1C(=O)OC(C)C,15%
12,Cc1cc(C)cc(N=Cc2c(O)c3ccccc3oc2=O)c1,12.2%
13,O=C(NCC1CCCO1)c1ccc(CSCc2cccc(F)c2)o1 (stereo not drawn),9.7%
14,CCCCN(C)CCCNC(=O)CN1N=C(c2ccc(Cl)cc2)CCC1=O,-6.8%
15,O=C(COc1ncnc2cc([N+](=O)[O-])ccc12)NCCc1ccc(Cl)cc1,6.19%
16,CC(C)CCNC(=O)c1ccc2c(c1)N(C)C(=O)c1ccccc1S2,-25.6%
17,O=C(O)c1ccc(N2C(=O)CC(N3C(=O)/C(=C/c4ccc(Cl)cc4)SC3=S)C2=O)cc1 (stereo not drawn),8.56%
18,CCNC(=S)N(CCc1c(C)[nH]c2ccc(C)cc12)Cc1ccco1,7.27%
19,COc1cccc(C2(c3cccc(OC)c3)CC2C(=O)Nc2ccccc2Cl)c1 (stereo not drawn),14.8%

row,SMILES,"hERG current change (%, negative = inhibition) at 1uM"
1,COc1ccc(C(=O)NC2CCN(C(=S)NCc3ccco3)CC2)cc1,-4.74%
2,Nc1c(C(=O)Nc2ccc(Cl)c(C(=O)O)c2)sc2nc3c(cc12)CCCC3,-0.711%
3,Cc1ccc(C(=O)NC(C)c2ccccc2)o1 (stereo not drawn),-0.6%
4,O=C(COC(=O)c1ccc[nH]c1=O)NCCc1ccc(F)cc1,8.36%
5,CC1CCN(C(=O)C2CCN(CC(C)c3ccccc3)CC2)CC1.O=C(O)C(=O)O (stereo not drawn),-6.64%
6,O=C(NCCc1ccccc1)c1coc(=O)c(Br)c1,15.6%
7,Cc1nc2ccccc2n1S(=O)(=O)c1cc(C(=O)O)ccc1Cl,11.4%
8,CC(=O)c1cccc(OCc2cc(C(=O)N3CCC(N4CCCCC4)CC3)no2)c1,3.33%
9,COc1ccccc1NC(=O)c1cnc(Nc2ccccc2OC)c2ccccc12,3.67%
10,C=CCc1cccc(CNc2nc3ccccc3n2C(C)C)c1O,-11.4%
11,Cc1ccc(C(=O)NC(=S)Nc2ccc(-c3cc4ccccc4oc3=O)cc2)c(C)c1,22.4%
12,Cc1ccccc1-c1nnc(-c2cccs2)o1,13%
13,COc1cc(/C=C2\COC/C(=C\c3ccc(O)c(OC)c3)C2=O)ccc1O,5.58%
14,COc1ccccc1N1CCN(C2CCCN(Cc3cc(F)cc(F)c3)C2)CC1 (stereo not drawn),8.82%
15,Cc1cccc2c(C(=O)Nc3ccc(Br)cc3)cc(-c3ccccn3)nc12,13.5%
16,CC(C)(C)c1ccccc1NC(=O)COC(=O)CN1C(=O)NC2(CCCC2)C1=O,4.77%
17,Cc1ccsc1C(C(=O)NC1CCCCC1)N(C(=O)Cc1cccs1)C1CC1 (stereo not drawn),6.91%
18,Cc1ccc(C)c(-n2ccnc2SCC(=O)c2c(N)n(C3CC3)c(=O)[nH]c2=O)c1,7.73%
19,CCN1CCc2c(sc(NC(=O)Cc3ccccc3)c2C(N)=O)C1.Cl,1.01%
